Earlier results as cited in patent US20050026866A1 (priority 2002, published 2005).

Columns and labels:
Ehrlich ascites tumors = details: daily intraperitoneal injection of lactulose; cited from earlier work
[1] = system: tetracycline-sensitive promoter; details: mouse, in vivo, iv; cited from earlier work

Which “increase in growth and survival of the bacteria within the tumor compared to a saline control” value (Ehrlich ascites tumors) does the source give for `OC[C@H]1O[C@@H](O[C@@H]2[C@@H](CO)OC(O)(CO)[C@H]2O)[C@H](O)[C@@H](O)[C@H]1O` (mixture of isomers) [lactulose] here?
The value was 1000 fold.

Which intratumoral luciferase activity [1] does the source give for `Cc1c2c(c(O)c3c(O)cccc13)C(=O)[C@]1(O)C(=O)C(C(N)=O)=C(O)[C@@H](N(C)C)[C@@H]1C2` [anhydrotetracycline] here?
The intratumoral luciferase activity was “induced”.
